Measured values from PubChem BioAssay AID1745849 (National Center for Advancing Translational Sciences (NCATS), 2022).
Hit rate of the full screen: of about 2,100 compounds, about 320 (15%) were called active. The shares of active, inactive and inconclusive entries below differ from those in the screen. The call rests on the fitted dose curve; in most records, active means well fitted cell-killing curve with a large enough effect; inconclusive means small, poorly fitted or top-dose-only effect, or effect the other way; inactive means flat fitted curve, though single readings scatter. A potency beside an inconclusive call is a rough fit, not a confirmed value.

test: Viability Counterscreen for CMV-Luciferase Assay of Inhibitors of ATXN expression; conditions: HEK-293 CMV-luciferase cells viability, protease fluorescence, 24 h; further: nearly all actives have a fitted effect of over 55% in size
Outline: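 HEK-293 cells stably expressing a CMV-luciferase reporter were exposed to compounds at several concentrations for 24 hr at 37 degree C. Viability was read as Gly-Phe-AFC fluorescence (25 uM final, 30 min). SteadyGlo luminescence was then measured after 5 min.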
Potency means the concentration at half of the fitted maximal effect; tags describe the fitted curve by direction and shape.

Structure (SMILES)	Potency
CC(=O)C(C(C)=O)c1c(Cl)c(O)c(O)c2c(C(=O)c3ccccc3)coc12	active: 7.08 µM
CC(=O)c1sc(C(C)(C)C)cc1NC(=O)/C=C/C(=O)O	inactive
O=C(N/N=C/c1cc([N+](=O)[O-])ccc1O)c1cc(-c2ccccc2)nc2ccccc12	active: 2.51 µM
O=C(Oc1c(CN2CCOCC2)cc(Cl)c2cccnc12)c1ccccc1F	inactive
O=C(N/N=C/c1ccc([N+](=O)[O-])o1)c1ccc2c(c1)OCO2	active: 17.8 µM
COc1ccc(C(=O)NNC(=S)NC(=O)C(C)(C)C)cc1	active: 25.1 µM
COc1ccc(CCNC2=C(Cl)C(=O)N(Cc3ccccc3)C2=O)cc1OC	inactive
CCOC(=O)c1c(NC(=O)/C=C/C(=O)O)sc(C)c1-c1ccc(Cl)cc1	inconclusive: 39.8 µM [cytotoxic, single point]
COc1ccc(C(NCC(=O)NC(C)c2ccc(Cl)cc2)c2ccccc2)cc1 (stereo not drawn)	inconclusive: 39.8 µM [cytotoxic, single point]
O=C(N/N=C/c1cc(Br)ccc1OC(=O)c1ccc(Br)cc1)c1ccncc1	inactive
CCOc1cccc(/C=N/NC(=O)C2CCCC2)c1O	inconclusive: 20 µM [cytotoxic, single point]
C=CCN(C(=O)CSc1nc2c(sc3ccccc32)c(=O)n1CCN(CC)CC)c1ccccc1	active: 20 µM
C=C(C)Cn1c(SCC(=O)N/N=C/c2c(O)ccc3ccccc23)nc2ccccc2c1=O	inconclusive: 25.1 µM [cytotoxic, partial curve]
O=C(c1ccco1)N1CCCC(c2nc(-c3ccc(S(=O)(=O)NCc4ccccc4)cc3)no2)C1 (stereo not drawn)	inconclusive: 39.8 µM [cytotoxic, single point]
CC[C@@H]1C(c2cccc(Cl)c2)=NN(c2ccc(Br)cc2)[C@H]1C(=O)N1CCOC1=O	inconclusive: 25.1 µM [rising, partial curve]
O=C(/C=C/c1cccs1)c1cc(Br)ccc1OC(=O)N1CCOCC1	inconclusive: 39.8 µM [cytotoxic, single point]
COc1ccc(C(=O)Cn2c(C(=O)/C=C/c3ccccc3)nc3ccccc32)cc1	active: 3.16 µM
c1ccc2c(c1)C(=NC1CCCCC1)NC2=NC1CCCCC1	inconclusive: 28.2 µM [cytotoxic, single point]
Cc1nnc(SCC(N)=O)n1CC1CCCO1 (stereo not drawn)	inactive
NC(=O)c1cccc(-c2ccnc3c2CC(C(=O)Nc2cccc(Oc4ccccc4)c2)O3)c1 (stereo not drawn)	inconclusive: 12.6 µM [cytotoxic, partial curve, poor fit]
CCCC(=O)NC(c1ccc(Cl)cc1)c1ccc2cccnc2c1O (stereo not drawn)	inconclusive: 1.78 µM [cytotoxic, partial curve, poor fit]
CN(C)CCNc1ccc2ncn3c4ccc(O)cc4c(=O)c1c23	inactive
CC(C)c1ccc(S(=O)(=O)c2cc3cc(Br)ccc3oc2=O)cc1	inconclusive: 35.5 µM [rising, partial curve]

Structure (SMILES)	Potency
Cc1cc(OCC(=O)Nc2ccc(Br)cc2)cc2c1C(=O)CC(C)(C)O2	inactive
CN(C)CCNc1ncnc2c1sc1nc(N3CCOCC3)c3c(c12)CC(C)(C)SC3	active: 17.8 µM
Clc1ccccc1C(c1ccccc1)(c1ccccc1)n1ccnc1	inactive
Cc1ccc(/C=N/NC(=O)C2=NNC(c3ccccc3)(c3ccccc3)C2)c(O)c1	inconclusive: 2 µM [cytotoxic, partial curve, poor fit]
Cc1ccc(/C=C2/SC(=S)N(CCCC(=O)Nc3ccc(O)cc3)C2=O)cc1	inconclusive: 28.2 µM [cytotoxic, single point]
COc1ccc(C)cc1NC(=O)CSc1ccc(-c2ccccn2)nn1	active: 12.6 µM
COc1ccc(C)cc1Nc1nc(C)nc2sc(C)cc12	inactive
CCC(=O)NC(=S)NNC(=O)c1ccc(OC)cc1	inconclusive: 20 µM [cytotoxic, partial curve]
Cc1ccc(C(NC(=O)C(C)C)c2cc([N+](=O)[O-])c3cccnc3c2O)cc1 (stereo not drawn)	inconclusive: 3.16 µM [cytotoxic, partial curve]
O=C(CSc1nnc(-c2ccccc2)o1)Nc1ccccc1F	inactive
COc1ccc(/C=C/C(=O)Nc2ccc(C)c(S(=O)(=O)N3CCOCC3)c2)cc1	inconclusive: 25.1 µM [cytotoxic, single point]
COc1cccc(CNc2nc3cc(-c4ccc(C(=O)N5CCN(C)CC5)cc4)sc3c(=O)n2C)c1	inconclusive: 39.8 µM [cytotoxic, single point]
Cc1cc(N2CCN(S(=O)(=O)c3ccc(Cl)cc3)CC2)c2ccccc2n1	inconclusive: 3.55 µM [cytotoxic, single point]
COc1cc(C(=O)O/N=C(\N)Cc2ccc([N+](=O)[O-])cc2)cc(OC)c1OC	active: 3.16 µM
NC(Cc1ccc(C(F)(F)F)cc1)c1csc(Nc2nccc(C(F)(F)F)n2)n1 (stereo not drawn)	inactive
O=C(c1cccc(Cl)c1)c1nn(-c2ccccc2)c(=O)cc1C(F)(F)F	active: 22.4 µM
CCN(CC)CCC(=O)Nc1cccc2c1C(=O)c1ccccc1C2=O	inconclusive: 3.16 µM [cytotoxic, partial curve, poor fit]
CCOC(=O)c1ccc(NC(=O)C2CCCN(S(=O)(=O)c3ccc(F)cc3)C2)cc1 (stereo not drawn)	inconclusive: 35.5 µM [cytotoxic, single point]
O=c1c2ccccc2sc2nc(CCl)nn12	inconclusive: 6.31 µM [cytotoxic, single point]
NS(=O)(=O)c1ccc(CCNC(=O)c2cc(-c3ccccn3)nc3ccc(Br)cc23)cc1	inconclusive: 14.1 µM [cytotoxic, partial curve, poor fit]
CC(C)C1Cc2c(sc3[nH]c(=S)n(Cc4ccccc4)c(=O)c23)CO1 (stereo not drawn)	inconclusive: 10 µM [cytotoxic, partial curve]
Cc1c([N+](=O)[O-])cc(C(=O)Nc2ccc(Cc3ccncc3)cc2)cc1[N+](=O)[O-]	inconclusive: 39.8 µM [cytotoxic, single point]
COc1ccc(OCc2cccc(C(=O)Nn3cc([N+](=O)[O-])cn3)c2)cc1	inactive

Structure (SMILES)	Potency
Cc1cc(NC(=O)/C=C/C(=O)N(c2ccccc2C)C(C(=O)NC2CCCC2)c2ccc(F)cc2)no1 (stereo not drawn)	inconclusive: 8.91 µM [cytotoxic, single point]
CCN(CC)S(=O)(=O)c1ccc(N/N=C/c2ccc(O)cc2O)nc1	inconclusive: 1.12 µM [cytotoxic, full curve]
Cc1ccc(OCCCC(=O)NNC(=O)c2ccccn2)cc1	inconclusive: 11.2 µM [cytotoxic, partial curve, poor fit]
COc1ccc(N2CCN(C(=O)c3cc4c(C)nc5ccccc5c4o3)CC2)cc1	inconclusive: 39.8 µM [cytotoxic, single point]
Cc1nc2cc(NC(=O)CSc3nc4c(C)cccc4cc3C#N)ccc2s1	inactive
CSCC[C@H](NC(=O)OC(C)(C)C)C(=O)N/N=C/c1cccc2cccnc12	inconclusive: 14.1 µM [cytotoxic, partial curve]
NC(Cc1ccc(C(F)(F)F)cc1)c1csc(Nc2ccc(C(=O)c3ccccc3)cc2)n1 (stereo not drawn)	inconclusive: 28.2 µM [cytotoxic, single point]
Cc1ccn2c(Nc3ccccc3)c(-c3ccccn3)nc2c1	inconclusive: 2 µM [cytotoxic, partial curve]
Cc1cnc(NC(=O)CCCc2nc3ccccc3s2)s1	inconclusive: 8.91 µM [cytotoxic, full curve, poor fit]
CN(C)C(=O)CSc1nc(-c2ccccc2)nc2c1CCCC2	inconclusive: 8.91 µM [cytotoxic, partial curve, poor fit]
COc1ccc(-c2cc(C3CCN(c4ccc(C(C)=O)cc4[N+](=O)[O-])CC3)[nH]n2)cc1	active: 14.1 µM
CCOc1ccc(-n2c(-c3ccccc3)c[n+]3c2CCCCC3)cc1	inconclusive: 12.6 µM [cytotoxic, partial curve, poor fit]
Cc1cccc2c1-c1sc(C(=O)Nc3ccccc3N3CCN(C)CC3)cc1CO2	active: 22.4 µM
CSc1nc(C)cc(OCC(=O)N/N=C/c2ccccc2O)n1	inconclusive: 0.316 µM [cytotoxic, full curve]
COc1ccc(CNCCC(c2ccc(OC(C)C)cc2)c2ccccc2OC)cc1 (stereo not drawn)	inactive
CC(=NNC(=O)c1ccncc1)c1ccc2ccccc2c1O	inconclusive: 3.98 µM [rising, partial curve]
COC(=O)C1=C(C)N(Cc2ccccc2)C(=NCCc2ccccn2)N[C@H]1c1cccc(C(F)(F)F)c1	inconclusive: 3.55 µM [cytotoxic, single point]
Cc1cc2sc3ccc(C#CC4(O)CCCCC4)cc3c(=O)c2cc1C	inconclusive: 28.2 µM [rising, partial curve, poor fit]
COc1ccccc1C(CCNCc1ccccc1)c1ccc(OC(C)C)cc1 (stereo not drawn)	inactive
C=CCn1c(COc2ccccc2)nnc1SCC(=O)N/N=C/c1cc(Cl)ccc1O	inconclusive: 12.6 µM [cytotoxic, single point]
CC(C(=O)c1ccc(-c2ccccc2)cc1)[n+]1cccc(NC(=O)c2ccccc2)c1 (stereo not drawn)	inactive
O=C(c1ccoc1)N1CCN(c2cc(-c3cccnc3)nc3cc(-c4cccc(Cl)c4)nn23)CC1	inconclusive: 39.8 µM [cytotoxic, single point]
